Laboratory results from article PMC9723119.
No constants are given. Whether binding was seen depends on the method and setting. In cells and extracts the contact can be indirect. Some entries that bind do so weakly or less than the wild type. Blank lines part the entries; values can stand above or below the molecule they belong to.

Protein sequences, listed by entry. Tags and fused reporters are not part of them.
UniProt Q9Y572: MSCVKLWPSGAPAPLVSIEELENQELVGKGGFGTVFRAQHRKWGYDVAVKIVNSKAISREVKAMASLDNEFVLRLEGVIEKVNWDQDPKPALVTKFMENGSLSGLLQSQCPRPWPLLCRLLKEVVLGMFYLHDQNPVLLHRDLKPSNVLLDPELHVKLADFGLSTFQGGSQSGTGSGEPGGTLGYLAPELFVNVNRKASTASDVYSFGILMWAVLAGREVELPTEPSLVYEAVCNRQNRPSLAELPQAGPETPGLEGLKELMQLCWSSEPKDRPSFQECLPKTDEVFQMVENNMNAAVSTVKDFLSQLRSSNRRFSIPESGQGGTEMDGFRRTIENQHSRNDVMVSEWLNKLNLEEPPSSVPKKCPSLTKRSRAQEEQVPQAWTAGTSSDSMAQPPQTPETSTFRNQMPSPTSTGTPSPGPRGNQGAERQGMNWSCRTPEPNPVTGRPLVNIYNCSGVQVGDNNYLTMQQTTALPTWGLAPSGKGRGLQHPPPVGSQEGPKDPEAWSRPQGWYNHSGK
UniProt Q13546: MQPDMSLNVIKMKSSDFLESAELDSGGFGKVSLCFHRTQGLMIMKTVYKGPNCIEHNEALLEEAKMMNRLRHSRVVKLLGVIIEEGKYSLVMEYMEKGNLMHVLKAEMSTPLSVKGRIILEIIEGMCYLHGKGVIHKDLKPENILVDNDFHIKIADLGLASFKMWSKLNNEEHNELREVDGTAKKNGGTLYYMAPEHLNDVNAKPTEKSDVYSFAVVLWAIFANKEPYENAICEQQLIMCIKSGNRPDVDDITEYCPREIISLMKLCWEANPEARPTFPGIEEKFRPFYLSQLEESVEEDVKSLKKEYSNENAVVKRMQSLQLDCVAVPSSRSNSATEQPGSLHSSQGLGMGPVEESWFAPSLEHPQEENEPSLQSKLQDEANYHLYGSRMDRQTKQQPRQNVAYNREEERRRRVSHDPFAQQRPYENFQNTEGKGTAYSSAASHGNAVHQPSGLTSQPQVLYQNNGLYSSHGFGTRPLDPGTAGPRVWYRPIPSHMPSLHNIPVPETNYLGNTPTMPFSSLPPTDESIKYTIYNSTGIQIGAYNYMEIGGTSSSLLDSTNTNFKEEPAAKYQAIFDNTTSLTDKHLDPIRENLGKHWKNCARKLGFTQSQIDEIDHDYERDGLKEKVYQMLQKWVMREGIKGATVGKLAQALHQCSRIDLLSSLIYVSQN
UniProt P29466: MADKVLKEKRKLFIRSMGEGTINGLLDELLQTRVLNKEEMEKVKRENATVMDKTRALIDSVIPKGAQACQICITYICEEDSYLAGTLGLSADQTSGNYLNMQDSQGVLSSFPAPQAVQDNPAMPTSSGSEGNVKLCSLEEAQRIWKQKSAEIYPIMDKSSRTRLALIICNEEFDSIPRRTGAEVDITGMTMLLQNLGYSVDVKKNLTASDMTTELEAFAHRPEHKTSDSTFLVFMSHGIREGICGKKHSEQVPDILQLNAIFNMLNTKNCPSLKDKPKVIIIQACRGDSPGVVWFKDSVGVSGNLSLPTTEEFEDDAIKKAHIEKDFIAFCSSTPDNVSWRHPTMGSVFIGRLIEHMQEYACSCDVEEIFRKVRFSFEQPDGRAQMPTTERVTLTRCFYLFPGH
UniProt Q14790: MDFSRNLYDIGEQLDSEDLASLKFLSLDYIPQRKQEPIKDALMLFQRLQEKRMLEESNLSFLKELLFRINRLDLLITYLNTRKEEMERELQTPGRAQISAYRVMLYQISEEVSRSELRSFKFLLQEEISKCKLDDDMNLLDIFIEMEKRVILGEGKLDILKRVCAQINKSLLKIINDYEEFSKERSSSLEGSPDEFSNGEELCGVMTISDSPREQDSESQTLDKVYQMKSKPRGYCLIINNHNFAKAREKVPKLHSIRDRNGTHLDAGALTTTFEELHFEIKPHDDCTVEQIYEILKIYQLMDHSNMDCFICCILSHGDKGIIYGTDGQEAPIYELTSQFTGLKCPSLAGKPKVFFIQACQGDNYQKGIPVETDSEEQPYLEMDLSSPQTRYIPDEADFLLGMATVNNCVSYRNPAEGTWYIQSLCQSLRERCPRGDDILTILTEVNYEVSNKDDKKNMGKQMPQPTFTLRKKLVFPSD

Columns and labels:
[1] = molecular target: RIP kinase 3 (RIPK3) (human (endogenous in AC-16)) (UniProt Q9Y572); test: condition: only control cardiomyocytes without DOX challenge; co-IP; RIPK3 immune complexes from control AC-16 cardiomyocytes without DOX challenge; blots of the endogenous partners
[2] = molecular target: RIP kinase 3 (RIPK3) (human (endogenous in AC-16)) (UniProt Q9Y572); test: co-IP; RIPK3 immune complexes from DOX-treated AC-16 cardiomyocytes, with scrambled or AIM2 siRNA; blots of the endogenous partners; IgG control

Molecule: RIP kinase 1 (RIPK1) (from UniProt Q13546 1-671)
binding [1]: no binding
binding [2]: binds

Molecule: Caspase1 (from UniProt P29466 1-404) (enzyme)
binding [1]: no binding
binding [2]: binds

B1: Pyrin (protein, UniProt O15553 1-781)
chain: MAKTPSDHLLSTLEELVPYDFEKFKFKLQNTSVQKEHSRIPRSQIQRARPVKMATLLVTYYGEEYAVQLTLQVLRAINQRLLAEELHRAAIQEYSTQENGTDDSAASSSLGENKPRSLKTPDHPEGNEGNGPRPYGGGAASLRCSQPEAGRGLSRKPLSKRREKASEGLDAQGKPRTRSPALPGGRSPGPCRALEGGQAEVRLRRNASSAGRLQGLAGGAPGQKECRPFEVYLPSGKMRPRSLEVTISTGEKAPANPEILLTLEEKTAANLDSATEPRARPTPDGGASADLKEGPGNPEHSVTGRPPDTAASPRCHAQEGDPVDGTCVRDSCSFPEAVSGHPQASGSRSPGCPRCQDSHERKSPGSLSPQPLPQCKRHLKQVQLLFCEDHDEPICLICSLSQEHQGHRVRPIEEVALEHKKKIQKQLEHLKKLRKSGEEQRSYGEEKAVSFLKQTEALKQRVQRKLEQVYYFLEQQEHFFVASLEDVGQMVGQIRKAYDTRVSQDIALLDALIGELEAKECQSEWELLQDIGDILHRAKTVPVPEKWTTPQEIKQKIQLLHQKSEFVEKSTKYFSETLRSEMEMFNVPELIGAQAHAVNVILDAETAYPNLIFSDDLKSVRLGNKWERLPDGPQRFDSCIIVLGSPSFLSGRRYWEVEVGDKTAWILGACKTSISRKGNMTLSPENGYWVVIMMKENEYQASSVPPTRLLIKEPPKRVGIFVDYRVGSISFYNVTARSHIYTFASCSFSGPLQPIFSPGTRDGGKNTAPLTICPVGGQGPD
binding [1]: no binding
binding [2]: binds

Continued, values first:

binding [1]: no binding
binding [2]: binds
Molecule: Caspase8 (from UniProt Q14790 1-479) (enzyme)

binding [1]: no binding
binding [2]: binds
B2: Z-DNA-binding protein 1 (ZBP1) (protein, UniProt Q9H171 1-429)
chain: MAQAPADPGREGHLEQRILQVLTEAGSPVKLAQLVKECQAPKRELNQVLYRMKKELKVSLTSPATWCLGGTDPEGEGPAELALSSPAERPQQHAATIPETPGPQFSQQREEDIYRFLKDNGPQRALVIAQALGMRTAKDVNRDLYRMKSRHLLDMDEQSKAWTIYRPEDSGRRAKSASIIYQHNPINMICQNGPNSWISIANSEAIQIGHGNIITRQTVSREDGSAGPRHLPSMAPGDSSTWGTLVDPWGPQDIHMEQSILRRVQLGHSNEMRLHGVPSEGPAHIPPGSPPVSATAAGPEASFEARIPSPGTHPEGEAAQRIHMKSCFLEDATIGNSNKMSISPGVAGPGGVAGSGEGEPGEDAGRRPADTQSRSHFPRDIGQPITPSHSKLTPKLETMTLGNRSHKAAEGSHYVDEASHEGSWWGGGI

binding [1]: no binding
binding [2]: binds
B3: AIM2 (protein, UniProt O14862 1-343)
chain: MESKYKEILLLTGLDNITDEELDRFKFFLSDEFNIATGKLHTANRIQVATLMIQNAGAVSAVMKTIRIFQKLNYMLLAKRLQEEKEKVDKQYKSVTKPKPLSQAEMSPAASAAIRNDVAKQRAAPKVSPHVKPEQKQMVAQQESIREGFQKRCLPVMVLKAKKPFTFETQEGKQEMFHATVATEKEFFFVKVFNTLLKDKFIPKRIIIIARYYRHSGFLEVNSASRVLDAESDQKVNVPLNIIRKAGETPKINTLQTQPLGTIVNGLFVVQKVTEKKKNILFDLSDNTGKMEVLGVRNEDTMKCKEGDKVRLTFFTLSKNGEKLQLTSGVHSTIKVIKAKKKT
